Here are results for three proteins from PMC7472837 (Molecular cell, 2020).

Sequences and labels used below:
B1: Recombinant BAX I133A (natural protein)
chain: not shown
B2: Recombinant BAX R134E/R145E (natural protein)
chain: not shown
B3: Recombinant BAXΔC ([…]) R134E (domain or fragment)
chain: not shown

The data set deals with the molecule itself. Kind of data set: SEC. For orientation: Size exclusion chromatography separates by hydrodynamic size, large species first.
For the protein B1, the binding result is “binds”. As to B2, the binding result was “binds”. Under B3 stands “binds”.
